{"source": "paper PMC4336329", "about": "(PLoS ONE, 2015)", "note": "The whole screen tested about 310,000 compounds, of which about 2,200 (0.71%) showed an effect of 50% or more. Effects have a minus sign here. Some of the results follow.", "data": [{"molecular_target": "human ether-à-go-go-related gene (hERG) potassium channel (human, UniProt Q12809)", "sequence (Q12809 whole entry, looked up)": "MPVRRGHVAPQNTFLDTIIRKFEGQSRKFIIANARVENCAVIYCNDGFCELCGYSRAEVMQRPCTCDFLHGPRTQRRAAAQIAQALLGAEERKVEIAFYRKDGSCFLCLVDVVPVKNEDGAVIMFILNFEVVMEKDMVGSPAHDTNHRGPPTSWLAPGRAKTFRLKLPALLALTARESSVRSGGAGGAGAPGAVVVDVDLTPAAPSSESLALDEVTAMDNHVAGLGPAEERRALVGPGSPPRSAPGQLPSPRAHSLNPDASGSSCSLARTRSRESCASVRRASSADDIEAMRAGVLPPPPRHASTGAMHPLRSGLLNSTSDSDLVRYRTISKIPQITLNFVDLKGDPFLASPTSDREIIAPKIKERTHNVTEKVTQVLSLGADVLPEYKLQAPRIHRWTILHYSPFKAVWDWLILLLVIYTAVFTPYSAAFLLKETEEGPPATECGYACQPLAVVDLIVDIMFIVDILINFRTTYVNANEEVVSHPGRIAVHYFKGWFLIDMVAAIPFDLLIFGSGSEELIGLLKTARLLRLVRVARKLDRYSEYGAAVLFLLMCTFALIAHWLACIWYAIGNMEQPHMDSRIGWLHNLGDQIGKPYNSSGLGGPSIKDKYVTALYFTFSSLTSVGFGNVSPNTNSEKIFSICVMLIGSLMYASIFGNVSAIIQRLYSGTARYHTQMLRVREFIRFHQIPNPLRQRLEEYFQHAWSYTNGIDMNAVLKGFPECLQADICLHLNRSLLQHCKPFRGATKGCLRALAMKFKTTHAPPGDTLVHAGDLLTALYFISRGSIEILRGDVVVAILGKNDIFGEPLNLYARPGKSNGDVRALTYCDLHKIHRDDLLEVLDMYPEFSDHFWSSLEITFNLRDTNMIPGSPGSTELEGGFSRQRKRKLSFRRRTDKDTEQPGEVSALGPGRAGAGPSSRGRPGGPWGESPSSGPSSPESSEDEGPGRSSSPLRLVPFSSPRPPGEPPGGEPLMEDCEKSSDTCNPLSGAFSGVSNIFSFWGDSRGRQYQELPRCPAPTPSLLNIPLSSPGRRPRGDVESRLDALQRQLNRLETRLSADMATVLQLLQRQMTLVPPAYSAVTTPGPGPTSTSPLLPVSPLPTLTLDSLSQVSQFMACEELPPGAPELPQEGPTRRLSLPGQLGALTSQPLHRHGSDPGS", "assay": "primary screen, population patch clamp on CHO cells stably expressing hERG", "units": {"hERG current change (%, negative = inhibition) at 1uM": "%"}, "values": [{"smiles": "Cc1ccc(NC(=O)c2ccc(NCCN)c([N+](=O)[O-])c2)cc1Cl", "hERG current change (%, negative = inhibition) at 1uM": 1.72}, {"smiles": "COc1ccc(/C=C(\\C#N)C(=O)OCC(=O)Nc2ccc(-c3nc4ccc(C)cc4s3)cc2)cc1", "hERG current change (%, negative = inhibition) at 1uM": 4.6}, {"smiles": "Cc1ccccc1C(=O)NNC(=O)CSc1nc(-c2ccccc2)cc(=O)[nH]1", "hERG current change (%, negative = inhibition) at 1uM": 11.6}, {"smiles": "Cc1ccc(Cl)cc1NC(=O)Nc1cccs1", "hERG current change (%, negative = inhibition) at 1uM": 9.5}, {"smiles": "COc1ccc(OC)c(C2C=C(c3ccc(C)c(C)c3)Nc3nnnn32)c1", "note": "(centres unmarked)", "hERG current change (%, negative = inhibition) at 1uM": 3.78}, {"smiles": "COC(=O)c1cc(COC(=O)c2nc3nc(C)cc(C)n3n2)oc1C", "hERG current change (%, negative = inhibition) at 1uM": 5.25}, {"smiles": "CCOc1ccccc1CNn1nnnc1N", "hERG current change (%, negative = inhibition) at 1uM": 21}, {"smiles": "Cc1ccccc1OCc1csc(N)n1", "hERG current change (%, negative = inhibition) at 1uM": 15.1}, {"smiles": "O=C(NC(NC1CCS(=O)(=O)C1)C(Cl)(Cl)Cl)c1cccc(Cl)c1", "note": "(centres unmarked)", "hERG current change (%, negative = inhibition) at 1uM": 12.1}, {"smiles": "Cc1ccc(C)c(C(=O)NC(C)c2ccc(-n3ccnc3)cc2)c1", "note": "(centres unmarked)", "hERG current change (%, negative = inhibition) at 1uM": -5.71}, {"smiles": "Cc1ccccc1N1CCN(C2CCCN(C(=O)c3ocnc3C)C2)CC1", "note": "(centres unmarked)", "hERG current change (%, negative = inhibition) at 1uM": -2.56}, {"smiles": "COc1cccc2oc3ccc(C#Cc4ccccn4)cc3c(=O)c12", "hERG current change (%, negative = inhibition) at 1uM": 19.5}, {"smiles": "COc1ccc(C2CC(c3cccs3)=NN2S(C)(=O)=O)cc1", "note": "(centres unmarked)", "hERG current change (%, negative = inhibition) at 1uM": 10.2}, {"smiles": "NNC(=O)CCc1nc2ccc(O)cc2[nH]1", "hERG current change (%, negative = inhibition) at 1uM": 24.8}, {"smiles": "COc1ccc(C(=O)COC(=O)c2cc(S(=O)(=O)N3CCCCC3)ccc2N2CCOCC2)c(OC)c1", "hERG current change (%, negative = inhibition) at 1uM": 0.129}, {"smiles": "COc1ccc(Nc2oc(COc3ccc(Cl)cc3)nc2C#N)cc1", "hERG current change (%, negative = inhibition) at 1uM": 14.6}, {"smiles": "CN1CCN(NC(=O)c2cccc3ccccc23)CC1", "hERG current change (%, negative = inhibition) at 1uM": 6.3}, {"smiles": "O=C(O)c1cccc(OS(=O)(=O)c2cc(Br)ccc2Br)c1", "hERG current change (%, negative = inhibition) at 1uM": 7.18}, {"smiles": "CCc1cccc(CC)c1NC(=O)CSc1nc2ccc(N3C(=O)C4C(C3=O)[C@H]3C=C[C@@H]4C3)cc2s1", "note": "(some centres unmarked)", "hERG current change (%, negative = inhibition) at 1uM": 10.4}, {"smiles": "COCc1cc(C)n(CC(=O)NCc2ccccc2)c(=O)c1C#N", "hERG current change (%, negative = inhibition) at 1uM": 18.3}, {"smiles": "Cc1ccc(S(=O)(=O)NCC(=O)OCC(=O)c2ccc(Br)s2)cc1", "hERG current change (%, negative = inhibition) at 1uM": 8.43}, {"smiles": "O=C(COC(=O)[C@@H]1CCCN1C(=O)c1cccs1)NCCc1ccccc1", "hERG current change (%, negative = inhibition) at 1uM": 11.6}, {"smiles": "N/C(CSc1ccc(Cl)cc1)=N\\S(=O)(=O)c1ccc(Cl)cc1", "hERG current change (%, negative = inhibition) at 1uM": 9.29}, {"smiles": "CN(C)c1oc(/C=C/c2ccccc2)nc1C#N", "hERG current change (%, negative = inhibition) at 1uM": 15.5}, {"smiles": "CCOC(=O)CSc1nnnn1-c1cc(OC)c(Cl)cc1OC", "hERG current change (%, negative = inhibition) at 1uM": 2.85}, {"smiles": "COc1ccc(C(=O)N2CCSC2=S)cc1OC", "hERG current change (%, negative = inhibition) at 1uM": 2.63}, {"smiles": "C=CCc1c(C)nc(-c2ccccc2)nc1Nc1ccc(O)cc1", "hERG current change (%, negative = inhibition) at 1uM": 3.65}, {"smiles": "O=C(CSc1nccn1-c1cccc(Cl)c1)NO", "hERG current change (%, negative = inhibition) at 1uM": 4.8}, {"smiles": "COCCC(=O)N1CCC(Oc2ccc(C(=O)NCCc3ccccn3)cc2)CC1", "hERG current change (%, negative = inhibition) at 1uM": 15.4}, {"smiles": "CCOc1ccc(N=Cc2c(O)n(CCc3ccc(OC)c(OC)c3)c(=O)[nH]c2=O)cc1", "hERG current change (%, negative = inhibition) at 1uM": 13}, {"smiles": "CN1CCN(S(=O)(=O)c2ccc(NC(=O)c3ccc(F)cc3Cl)cc2)CC1", "hERG current change (%, negative = inhibition) at 1uM": 18.2}, {"smiles": "CC(Oc1ccccc1)C(=O)N1CCN(c2ccc(N3CCOCC3)nn2)CC1", "note": "(centres unmarked)", "hERG current change (%, negative = inhibition) at 1uM": 1.96}, {"smiles": "CCOc1ccccc1C(=O)N/N=C/c1coc2ccc(C)cc2c1=O", "hERG current change (%, negative = inhibition) at 1uM": 6.21}, {"smiles": "COc1ccccc1N1CCN(C(=O)CSc2nc(-c3ccco3)cc(C(F)(F)F)n2)CC1", "hERG current change (%, negative = inhibition) at 1uM": 5.61}, {"smiles": "O=C(CCNS(=O)(=O)c1cccc(Cl)c1)OCC(=O)N1CCN(C(=O)c2ccco2)CC1", "hERG current change (%, negative = inhibition) at 1uM": -22.9}, {"smiles": "COc1ccccc1CNC(=O)c1oc2ccc(S(=O)(=O)N3CCCC3)cc2c1C", "hERG current change (%, negative = inhibition) at 1uM": 6.28}, {"smiles": "CCC(Oc1ccccc1)C(=O)N(Cc1ccccc1)c1ccccn1", "note": "(centres unmarked)", "hERG current change (%, negative = inhibition) at 1uM": 9.42}, {"smiles": "Fc1ccc(NC(=S)N/N=C/c2cccc(Br)c2)c(F)c1", "hERG current change (%, negative = inhibition) at 1uM": 5.57}, {"smiles": "CC(=O)C1=NN(c2ccc(Cl)cc2)C(c2ccc3c(c2)OCO3)N(C(C)=O)N1C", "note": "(centres unmarked)", "hERG current change (%, negative = inhibition) at 1uM": 12.4}, {"smiles": "COc1cccc(N2CCN(c3c4c(nc5ncnn35)CCC4)CC2)c1", "hERG current change (%, negative = inhibition) at 1uM": -0.656}, {"smiles": "O=C(NC1CC1)C1=C[C@@H](c2ccc(Br)cc2)C[C@@H](OCCCCO)O1", "hERG current change (%, negative = inhibition) at 1uM": 10.6}, {"smiles": "CSc1c(-c2ccccn2)c(N)nn1C(=O)C1CCC1", "hERG current change (%, negative = inhibition) at 1uM": 5.4}, {"smiles": "COc1ccc(C2C3=C(CC(C)(C)CC3=O)Oc3ncn(Cc4ccco4)c(=N)c32)cc1", "note": "(centres unmarked)", "hERG current change (%, negative = inhibition) at 1uM": -10.6}, {"smiles": "Cc1ccc(NC(=O)c2oc3ccc(S(=O)(=O)N4CCOCC4)cc3c2C)cc1C", "hERG current change (%, negative = inhibition) at 1uM": 0.784}]}]}
